# From article PMC7819943, “Rice protein-binding microarrays: a tool to detect cis-acting elements near promoter regions in rice”
# Some of the results follow.
# Target: T1, OsWOX13 (Oryza sativa, UniProt Q5QMM3 1-267)
# T1 sequence: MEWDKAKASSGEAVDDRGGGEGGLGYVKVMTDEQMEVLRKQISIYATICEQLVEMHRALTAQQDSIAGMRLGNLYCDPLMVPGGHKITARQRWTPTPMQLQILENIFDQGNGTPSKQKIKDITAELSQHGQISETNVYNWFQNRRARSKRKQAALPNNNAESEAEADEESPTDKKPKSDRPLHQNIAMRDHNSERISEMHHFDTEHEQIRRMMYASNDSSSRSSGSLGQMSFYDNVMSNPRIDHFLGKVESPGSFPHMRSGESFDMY
# Assay: protein-binding microarray (RPBM); PBS, 2% BSA, 51.3 ng/ul salmon testes DNA, 50 uM zinc acetate, 200 nM TF, 25 C, 1 h; high values mean tight binding
# Details: protein: recombinant; tags: N-terminal polyhistidine and DsRed monomer fusion (pET32a); label: CyDye5-dUTP incorporated in the synthesized complementary strand; 3' TTTTT single-stranded linker to array surface; dsDNA, one strand shown
# Summary of the method: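 The binding signal for each feature is its fluorescence intensity in arbitrary units. An Axon 4000B scanner was used to read a custom Agilent array that had been made double-stranded with Cy5-dUTP primer extension, blocked with 2% BSA, incubated at 25 °C for 1 h with 200 nM protein in PBS, 2% BSA, salmon testes DNA and 50 µM zinc acetate, and washed. The protein was an N-terminal polyhistidine–DsRed transcription factor fusion from E. coli BL21-CodonPlus, purified on Ni–NTA.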
row,Sequence,binding signal
1,CATGATATTAACATATTGATATTTACATAATTTGTAGTGACGGAGTCACCTAGTGCAG,14900 fluorescence intensity (a.u.)
2,ATTCTGTAATTTATTTTGTTATTAGACTATATTTAATATTCGGAGTCACCTAGTGCAG,8530 fluorescence intensity (a.u.)
3,TCCCAATTTGCCGTTACTGGATCAATAAGCTCACATATATCGGAGTCACCTAGTGCAG,5210 fluorescence intensity (a.u.)
4,ATGGGAGTTTGTCCTAATTATTGTTTATAATTTTGATATCCGGAGTCACCTAGTGCAG,5460 fluorescence intensity (a.u.)
5,AAGCCCCAAACCTGATTGCTCTTGTCTAAAATCTACCCCACGGAGTCACCTAGTGCAG,4500 fluorescence intensity (a.u.)
6,ATATAACAAACCCCAAGTAATTAACTGCAGGACTACTGGACGGAGTCACCTAGTGCAG,4160 fluorescence intensity (a.u.)
7,ACCTCTAATTTATTAATCCAGTATACATAAGTTCAGTGGGCGGAGTCACCTAGTGCAG,34500 fluorescence intensity (a.u.)
8,TCCTCATCTGTCATTAGTCATGATCAAATTTTCTTTTCCACGGAGTCACCTAGTGCAG,7890 fluorescence intensity (a.u.)
9,TTACGTAAAATGGATTCAATTAGGATTACCGCCAAACTTACGGAGTCACCTAGTGCAG,7320 fluorescence intensity (a.u.)
10,TAGAATCAATCATCATGCAACAACTCCACATGAGCCCATTCGGAGTCACCTAGTGCAG,10700 fluorescence intensity (a.u.)
11,TCTTATGTGCTAATTAACTTTGCTCGTTTGCTACTCTACTCGGAGTCACCTAGTGCAG,7200 fluorescence intensity (a.u.)
12,AATAATTTCATACTATTGGGAGTTGGGACCTTATCTTGCACGGAGTCACCTAGTGCAG,5340 fluorescence intensity (a.u.)
13,CCAAACAGGTAATCCAAGTTGGTGAGAGCGATATATATAGCGGAGTCACCTAGTGCAG,7210 fluorescence intensity (a.u.)
14,CTTGAGAGGCCAATCACATCCAATACCTTACCTTGCAGCCCGGAGTCACCTAGTGCAG,5200 fluorescence intensity (a.u.)
15,AAGGGAATTAATTGCATGTGACAAATACGCAAAGCAAAGCCGGAGTCACCTAGTGCAG,26200 fluorescence intensity (a.u.)
16,ACTAATTTAATTTGAACCGACGCTTGAACAGGCTACTAGTCGGAGTCACCTAGTGCAG,48400 fluorescence intensity (a.u.)
17,GCTTCGTCAACCCAATTACAGGAATTCTTAAACTTAAAAGCGGAGTCACCTAGTGCAG,6270 fluorescence intensity (a.u.)
18,TATGTGTTATATTTCAATTAAAATGAAATTGCAGTGTGCGCGGAGTCACCTAGTGCAG,7430 fluorescence intensity (a.u.)
19,GTGAGTTTTCTGATTTTGATTTAAACCCGTTAGGTTGAAGCGGAGTCACCTAGTGCAG,7690 fluorescence intensity (a.u.)
20,TTATGGGGATAATTTGATCATCTAGATCTAGCATCCCTTGCGGAGTCACCTAGTGCAG,4990 fluorescence intensity (a.u.)
21,ACTTTAATTGCCTTATAATAATTTAACAATGTTGTTTTCTCGGAGTCACCTAGTGCAG,23800 fluorescence intensity (a.u.)

row,Sequence,binding signal
1,AGCCCAATTAATGGCTCATTCGCCGGGAAGAAAAGCTGGGCGGAGTCACCTAGTGCAG,5350 fluorescence intensity (a.u.)
2,AAATCACTTCAATCAAATATTGTTATACTGCTCCCTGCAGCGGAGTCACCTAGTGCAG,17300 fluorescence intensity (a.u.)
3,GTATATAATAGATAGATAGATATCTACGCTTGCACTGCGTCGGAGTCACCTAGTGCAG,24200 fluorescence intensity (a.u.)
4,TTGACTATAATTGATTTGGATAGTTGGCTATAATAAACCTCGGAGTCACCTAGTGCAG,54500 fluorescence intensity (a.u.)
5,AGACTAGATTAATATTAAACCACCTCAATAGTATGTCTACCGGAGTCACCTAGTGCAG,8380 fluorescence intensity (a.u.)
6,CGTGATGATTCATTTTCATCCAGTCACGAAATAATCCACGCGGAGTCACCTAGTGCAG,12600 fluorescence intensity (a.u.)
7,TAATTATTAATAATTAATTAACCATATAATAATGAGCTTTCGGAGTCACCTAGTGCAG,32800 fluorescence intensity (a.u.)
8,TAATTGCAAACCTAATTGACCAATATGCACATAAACAGTACGGAGTCACCTAGTGCAG,9500 fluorescence intensity (a.u.)
9,CGGATTGAACAGTAAAGTGCAGACAAAATCAAACTAAGCTCGGAGTCACCTAGTGCAG,9870 fluorescence intensity (a.u.)
10,AATGGTGATTATAATGATATATTCTGTATTTATTGTTTGCCGGAGTCACCTAGTGCAG,27500 fluorescence intensity (a.u.)
11,GATAATTGCATCTATCAATGTGGAATCGTACGTACCATTGCGGAGTCACCTAGTGCAG,41300 fluorescence intensity (a.u.)
12,TTTTGATCATTTCAATAAATTTGTACAGTACTCACTGAGACGGAGTCACCTAGTGCAG,7650 fluorescence intensity (a.u.)
13,TGTTTGGATTGCTAATCTGCTGTGCTAAGTCTGTTTAAATCGGAGTCACCTAGTGCAG,7570 fluorescence intensity (a.u.)
14,CCGTGTGATTTACCAGGTCAAAACCACTTCTCGACCAATCCGGAGTCACCTAGTGCAG,8830 fluorescence intensity (a.u.)
15,GCTGCTGATTGCATATATATATGTGTATGTAATTAGGAAGCGGAGTCACCTAGTGCAG,31200 fluorescence intensity (a.u.)
16,CAAAATTATCCCTCAACTAGCAGACCTTAGATATTTGGGTCGGAGTCACCTAGTGCAG,6540 fluorescence intensity (a.u.)
17,ACATAATAAGAAGGGTTAATTGGATCATTGTAAATTTGCTCGGAGTCACCTAGTGCAG,19300 fluorescence intensity (a.u.)
18,TTATAATTTATGCTTGTGCCAGTGCGATTGTTATCCAAAGCGGAGTCACCTAGTGCAG,18100 fluorescence intensity (a.u.)
19,TCTAATCAATCAAAAGCAATAAAGCTAGCGCACTAGGATTCGGAGTCACCTAGTGCAG,28600 fluorescence intensity (a.u.)
20,CCACTGACTACTGATGGGTGTGTTGATAGTGTTTTGTCAGCGGAGTCACCTAGTGCAG,4660 fluorescence intensity (a.u.)
21,ACGATGAATGCAAAAGTGACTGGATAGCAACACATTGCATCGGAGTCACCTAGTGCAG,4510 fluorescence intensity (a.u.)
